Results published in the antibiotic and cytotoxicity screens of Wong et al. (2023).
Some of the results follow.

Tests used:
HSkMC = human skeletal muscle cells; test: cytotoxicity call (relative viability < 0.9); conditions: 10 µM
HepG2 = test: cytotoxicity call (relative viability < 0.9); conditions: 10 µM
S. aureus RN4220 = test: growth inhibition call (relative growth <= 0.2); conditions: 50 µM

| Structure (SMILES) | cytotoxicity call (HSkMC) | cytotoxicity call (HepG2) | growth inhibition call (S. aureus RN4220) |
| --- | --- | --- | --- |
| COc1ccc(S(=O)(=O)N(C)C[C@@H]2Oc3c(NC(=O)c4ccncc4)cccc3C(=O)N([C@H](C)CO)C[C@@H]2C)cc1 | inactive | inactive | inactive |
| Cc1ccc(S(=O)(=O)N(C)C[C@@H]2OCCCC[C@@H](C)Oc3ccc(NC(=O)CCC(F)(F)F)cc3C(=O)N([C@@H](C)CO)C[C@H]2C)cc1 | inactive | inactive | inactive |
| C[C@@H]1CN([C@@H](C)CO)C(=O)c2cccc(NC(=O)c3ccncc3)c2O[C@H]1CN(C)Cc1ccc(-c2ccccc2)cc1 | inactive | inactive | inactive |
| C[C@@H]1CCCCO[C@H](CN(C)C(=O)Nc2ccc3c(c2)OCO3)[C@@H](C)CN([C@H](C)CO)C(=O)c2cc(NC(=O)Cc3ccccc3)ccc2O1 | inactive | inactive | inactive |
| COc1ccc(NC(=O)N(C)C[C@@H]2OCCCC[C@@H](C)Oc3ccc(NS(=O)(=O)c4ccc(Cl)cc4)cc3C(=O)N([C@H](C)CO)C[C@@H]2C)cc1 | inactive | inactive | inactive |
| C[C@H]1CN([C@@H](C)CO)C(=O)c2cc(NS(=O)(=O)c3cccs3)ccc2O[C@@H]1CN(C)S(=O)(=O)c1cn(C)cn1 | inactive | inactive | inactive |
| Cc1ccc(-c2ccc3c(c2)O[C@H](CN(C)Cc2cncnc2)[C@H](C)CN([C@H](C)CO)S3(=O)=O)cc1 | inactive | inactive | inactive |
| C[C@@H]1CN([C@H](C)CO)C(=O)c2cc(Br)cnc2O[C@@H]1CN(C)C(=O)Nc1cccc(F)c1 | inactive | inactive | inactive |
| CC[C@@H]1OC(=O)[C@H](C)[C@@H](O[C@H]2C[C@@](C)(OC)[C@@H](O)[C@H](C)O2)[C@H](C)[C@@H](O[C@@H]2O[C@H](C)C[C@H](N(C)C)[C@H]2O)[C@](C)(O)C[C@@H](C)/C(=N\OCOCCOC)[C@H](C)[C@@H](O)[C@]1(C)O | inactive | inactive | active |
| C[C@@H]1CN([C@@H](C)CO)C(=O)c2cccc(NS(=O)(=O)c3cn(C)cn3)c2O[C@@H]1CN(C)S(=O)(=O)c1ccccc1 | inactive | inactive | inactive |
| C[C@@H]1CN([C@H](C)CO)C(=O)c2cc(NC(=O)Cc3ccccc3)ccc2O[C@H]1CN(C)S(C)(=O)=O | inactive | inactive | inactive |
| COc1ccccc1NC(=O)N(C)C[C@H]1OCc2ccccc2-c2c(n(C)c3ccccc23)C(=O)N([C@H](C)CO)C[C@@H]1C | inactive | inactive | inactive |
| CN1C(=O)c2cc(NC(=O)c3cccs3)ccc2OC[C@H]2O[C@@H](CC(=O)NCC(F)(F)F)CC[C@@H]21 | inactive | inactive | inactive |
| CNC[C@H]1OCCCC[C@H](C)Oc2ccc(NC(=O)CCCN(C)C)cc2C(=O)N([C@H](C)CO)C[C@@H]1C | inactive | inactive | inactive |
| C[C@H](CO)N1C[C@H](C)[C@H](CN(C)S(=O)(=O)c2cn(C)cn2)Oc2ccc(NC(=O)Cc3cn(C)c4ccccc34)cc2C1=O | inactive | inactive | inactive |
| COc1cccc(CN(C)C[C@H]2OCc3ccccc3-c3c(n(C)c4ccccc34)C(=O)N([C@@H](C)CO)C[C@H]2C)c1 | inactive | active | inactive |
| C[C@@H]1CN([C@@H](C)CO)C(=O)c2cc(C#CCN(C)C)cnc2O[C@H]1CN(C)S(C)(=O)=O | inactive | inactive | inactive |
| CC(C)NC(=O)Nc1ccc2c(c1)C(=O)N([C@@H](C)CO)C[C@@H](C)[C@H](CN(C)CC1CCCCC1)OCCCC[C@H](C)O2 | inactive | inactive | inactive |
| CCc1cnc2c(c1OC)c(=O)[nH]c(=O)n2C | inactive | inactive | inactive |
| Cc1ccc(S(=O)(=O)Nc2cccc3c2O[C@H](CN(C)Cc2ccc(Cl)c(Cl)c2)[C@@H](C)CN([C@@H](C)CO)C3=O)cc1 | inactive | inactive | inactive |
| C[C@H](CO)N1C[C@H](C)[C@H](CN(C)C(=O)Nc2ccc(F)cc2)Oc2c(NC(=O)c3cnccn3)cccc2C1=O | inactive | inactive | inactive |
| CC(=O)OC1CCC2(C)C(CCC3(C)C2C2OC2C24OC(=O)C5(CCC(C)C(C)C52)CCC34C)C1(C)C (configuration not stated) | inactive | inactive | inactive |
| COCC#Cc1ccc([C@H]2[C@H](CO)N3C(=O)CN(C(=O)c4ccncc4)C[C@@H]23)cc1 | inactive | inactive | inactive |
| COc1cccc(S(=O)(=O)N2C[C@@H](O)COC[C@@H]3O[C@@H](CC(=O)N4CCN(c5ccccc5)CC4)CC[C@H]32)c1 | inactive | inactive | inactive |
